Reference: the supplement of paper PMC10126150
Values marked as one replicate rest on one cluster of the flow cell; about a third of the high ones do not repeat.

System: ATP
Assay: switch fluorescence ratio, 500 uM ATP over buffer (Cy3 cluster intensity, sum of 5 cycles each) (fold (ratio)); higher = stronger signal-on switching upon ATP binding; sequences stand for … in TCGTCGGCAGCGTCAGATGTGTATAAGAGACAGTTTTTTTTTTTTTTTTTTTTTTTTT…TC
Settings: aptamer strand: ATP DNA aptamer (quencher-CACCTGGGGGAGTATTGCGGAGGAAGG + anchor), 100 nM annealed; ATP concentration: 500 uM; one replicate
Outline: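 Imaging in selection buffer was followed by imaging after 15 min with 500 uM ATP at 22 °C, for Cy3-labelled switching-strand clusters annealed to 100 nM quencher-labelled ATP aptamer on a modified Illumina MiSeq flow-cell. Five of these buffer/ATP cycles ran, separated by NaOH stripping and re-annealing. The fluorescence ratio per cluster is summed target-cycle over summed buffer-cycle Cy3 intensity, averaged per switch-domain sequence; clusters outside 100-1000 RFU were removed.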
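Note: ATP exposure 15 min at 22 °C before imaging.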

TCGCGTTAGA
switch fluorescence ratio: 1.02

TTTCAGGTAT
switch fluorescence ratio: 1.02

TTGGGTACAC
switch fluorescence ratio: 1.08

AGCTCCTTGG
switch fluorescence ratio: 1

ACGATCTTTA
switch fluorescence ratio: 0.985

GGAGCTAGAG
switch fluorescence ratio: 2.83

GGAGGCAGTG
switch fluorescence ratio: 0.971

CGAGAGCAGG
switch fluorescence ratio: 1.06

GCTAAGTTGC
switch fluorescence ratio: 1.02

TATGTTCTGC
switch fluorescence ratio: 0.991

ATAGTCTCGT
switch fluorescence ratio: 0.918

TAAAGGCATT
switch fluorescence ratio: 1.01

ACTCCACCTC
switch fluorescence ratio: 1.55

TCAGGTATGC
switch fluorescence ratio: 1

GCTCGGATA
switch fluorescence ratio: 0.964

AATCATCCGG
switch fluorescence ratio: 1.06

TACTCCAAG
switch fluorescence ratio: 1.13

GCCTTTAGCA
switch fluorescence ratio: 1.04

GTTGAATACG
switch fluorescence ratio: 1.01

GGTGTACGC
switch fluorescence ratio: 0.984

TTACTCCAGA
switch fluorescence ratio: 1.1

CGTCTAAACC
switch fluorescence ratio: 1.07

TCATTCTGGA
switch fluorescence ratio: 0.989

TGACGACACA
switch fluorescence ratio: 1.64

ACGTGAGATA
switch fluorescence ratio: 1.05

TAGAAAAGGA
switch fluorescence ratio: 1.01

GCGGCACGTT
switch fluorescence ratio: 0.987

CGCGCGCCTG
switch fluorescence ratio: 0.975

TAGATTCGCA
switch fluorescence ratio: 1.01

TATGTCAACG
switch fluorescence ratio: 1.01

ACTTAGGTTT
switch fluorescence ratio: 1.07

CGACTCTCGG
switch fluorescence ratio: 0.969

GGGTGAGGGC
switch fluorescence ratio: 1.04

CCACTAACAC
switch fluorescence ratio: 1.34

AGGTTCGCAT
switch fluorescence ratio: 1.06

ACGGTCTG
switch fluorescence ratio: 1

AGAGTGGGG
switch fluorescence ratio: 0.94

CATTCTATT
switch fluorescence ratio: 1.01

GAGAAAAGCA
switch fluorescence ratio: 1.03

GAGTTGGCAT
switch fluorescence ratio: 1

TTTTACCGTC
switch fluorescence ratio: 1.32

CTTATCAAAA
switch fluorescence ratio: 0.962

ATGCAATTGG
switch fluorescence ratio: 1.07

AGCCATCGCG
switch fluorescence ratio: 1.01

CGATGCCCGT
switch fluorescence ratio: 0.972

CGAAGCGAAA
switch fluorescence ratio: 1.15

GGAAATTTAG
switch fluorescence ratio: 1.01

TAAGCTATAT
switch fluorescence ratio: 1.23

GATAGTATAT
switch fluorescence ratio: 1

TTAGAGATGA
switch fluorescence ratio: 0.997

GTGAATTTAC
switch fluorescence ratio: 1.05

AACGAGTAA
switch fluorescence ratio: 0.999

CCGATCAGAG
switch fluorescence ratio: 1.29

TACTGTAATA
switch fluorescence ratio: 1.2

AATATGACGA
switch fluorescence ratio: 0.989

TTCATAGAAA
switch fluorescence ratio: 0.977

CCTATGAGCC
switch fluorescence ratio: 1.12

ATGCAAGTGC
switch fluorescence ratio: 1.2

AGGTACGCCA
switch fluorescence ratio: 1.03

TCTTGTTAAT
switch fluorescence ratio: 0.955

GAGATGTTGT
switch fluorescence ratio: 1

CTTGTAGAGT
switch fluorescence ratio: 1.04

TGTGGGTC
switch fluorescence ratio: 0.977

CGCGTTATAG
switch fluorescence ratio: 1.09

TCTTTACTTC
switch fluorescence ratio: 0.997

CAATTCGGTT
switch fluorescence ratio: 0.975

GGTGCGGGCC
switch fluorescence ratio: 0.926

GACATCGAAC
switch fluorescence ratio: 1.13

GTCCCCGGTA
switch fluorescence ratio: 1.04

GTCGACGTTG
switch fluorescence ratio: 0.997

GTTACACAGC
switch fluorescence ratio: 1.02

TTACGTCAGC
switch fluorescence ratio: 1.05

TTATAGGGCT
switch fluorescence ratio: 1.04

GCCAATGGTG
switch fluorescence ratio: 1.17

CAGGCTTTCA
switch fluorescence ratio: 1.03

GGTGCTTCGC
switch fluorescence ratio: 0.938

ACCTGTGCGA
switch fluorescence ratio: 1.46

GGTCATGGTT
switch fluorescence ratio: 0.992

TGCCTGCGGT
switch fluorescence ratio: 0.983

CCGGGTACCC
switch fluorescence ratio: 1.04

TTACTAGGTC
switch fluorescence ratio: 0.996

AAACGGTTGG
switch fluorescence ratio: 0.982

AGGTTCTTTT
switch fluorescence ratio: 0.99

ACTACCTCCC
switch fluorescence ratio: 1.61

TGTATTGTAG
switch fluorescence ratio: 0.974

GCGCATAAT
switch fluorescence ratio: 1

TTTGACACCA
switch fluorescence ratio: 1.1

AGGTCAGGCT
switch fluorescence ratio: 1.04

GGCTTTACAC
switch fluorescence ratio: 1.03

TATAAAGCTG
switch fluorescence ratio: 0.927

CATGCGAAAA
switch fluorescence ratio: 1.24

AGAAAACCGC
switch fluorescence ratio: 1.31

TGCAATGCCA
switch fluorescence ratio: 0.978

CGTGTACGCA
switch fluorescence ratio: 0.946

TTTCGGTAGA
switch fluorescence ratio: 1.02

TCAGCCATCC
switch fluorescence ratio: 1.31

AACCGGAATA
switch fluorescence ratio: 1.05

GACCGGAAGA
switch fluorescence ratio: 1.09

GGATCACGTC
switch fluorescence ratio: 1.02

CAGAACTGAT
switch fluorescence ratio: 1.04

TCTGTTGCCG
switch fluorescence ratio: 0.967

GGGGTTCGAT
switch fluorescence ratio: 1.01

GGGACGGAGT
switch fluorescence ratio: 1.14

ACTAAGAACG
switch fluorescence ratio: 1.04

TGGAATCTAT
switch fluorescence ratio: 0.93

TGCAGGTTCT
switch fluorescence ratio: 0.998

TATTTGCT
switch fluorescence ratio: 0.955

TTCCCGGGAA
switch fluorescence ratio: 1.06

CCTTGGTTCT
switch fluorescence ratio: 1.01

CACTGCGGCA
switch fluorescence ratio: 1.04

CATTACAGC
switch fluorescence ratio: 1.02

CACGTGATAT
switch fluorescence ratio: 1.01

ATTGCTTGT
switch fluorescence ratio: 1.01

GGTATCGTGG
switch fluorescence ratio: 0.941

ACGTCAGTGG
switch fluorescence ratio: 0.996

TTAGATCTAT
switch fluorescence ratio: 1

TTGGGCACAG
switch fluorescence ratio: 0.97

CGGGCCAGAG
switch fluorescence ratio: 1.01

CTCGGGTAGC
switch fluorescence ratio: 1.02

CCATGAAAGT
switch fluorescence ratio: 1.03

CTATTGTAAG
switch fluorescence ratio: 0.988

ATAGACATTC
switch fluorescence ratio: 0.996

AGTAGTTCCT
switch fluorescence ratio: 1.02

GTAAAGACGC
switch fluorescence ratio: 1.04

TAATGTCCTA
switch fluorescence ratio: 1.01

AAACCTGAAG
switch fluorescence ratio: 1.79

CAAAGTTTCT
switch fluorescence ratio: 0.994

GGCATCTCAT
switch fluorescence ratio: 1.01

CGGTATCTGC
switch fluorescence ratio: 0.942

AGAGCCATTC
switch fluorescence ratio: 0.977

GAGAAGTAAT
switch fluorescence ratio: 0.985

CAGTTTTGCA
switch fluorescence ratio: 1.02

TGTAAGCAT
switch fluorescence ratio: 1.91

ATCAGCATAT
switch fluorescence ratio: 1.35

TATCGAGCAC
switch fluorescence ratio: 1.4

GTTAGAATAT
switch fluorescence ratio: 0.964

ACTGTCTCGG
switch fluorescence ratio: 1.03

AGGCTTGGCG
switch fluorescence ratio: 1.06

AATGTGGAGC
switch fluorescence ratio: 0.993

ATACCTGTT
switch fluorescence ratio: 0.972

TGAGATGTGT
switch fluorescence ratio: 1.15

ATATTACAAC
switch fluorescence ratio: 0.994

TCTTCCATTC
switch fluorescence ratio: 1.13

GGTCTGCATC
switch fluorescence ratio: 1.27

GGGAGGGGTC
switch fluorescence ratio: 1.03

CGAGGCTGAG
switch fluorescence ratio: 1.01

TAGCCGACTG
switch fluorescence ratio: 1.05

TGTCACTCAC
switch fluorescence ratio: 1.29

CCCCGTTCGA
switch fluorescence ratio: 1.56

AGTCTATTTG
switch fluorescence ratio: 0.965

AAGCCCGTTT
switch fluorescence ratio: 1.02

CTGTTTGATC
switch fluorescence ratio: 0.962

TGACCTCGTA
switch fluorescence ratio: 0.994
